Read counts are not given, so values of variants with three or more changes are uncertain.
B1: OR4K15 (parent)
chain: GUUAACGGUCAUAGGCCAUGGAAACUAGGAGCACCAUUUCGCUGCCAGUGAAGAAAUGAACAAAGAAAAUCUGGGCCAGGCAGGCAUCAAAAGAAAUAGUCUUGCGCUCAACCAGAAAGUCUGUAAUCAUUUUAAGGGUA

Variants of: B1
Assay: self-cleavage, relative activity (ratio to wild type); higher = more cleavage; in vitro, sequencing; the parent is a self-cleaving ribozyme

Variant	self-cleavage
GUUAACGGUCAUAGGCCAUGGAAACUAGGAGCACCAUUUCGCUGCCAGUAAAGAAAUGAACAAAGAAAAUCUGGGCCAGGCAGGCACCAAAAGGAAUAGUCUUGCGCUCAACUAGAAAGUCUGUAAUCAUUUUAAGGGUA [G50A U87C A94G C113U]	0.1
GUUAACGGUCAUAGGCCAUGGAAACUAGGAGCACCAUUUCGCUGCCAGGGAAGAAAUGAACAAAGAGAAUCUGGGCCAGGCAGGCAUCAAAGGAAAUAGUCUUGCGCUCAACCAGAAAGUCUGUAAUCAUUUUAAGGGUA [U49G A67G A92G]	1.14
GUUAACGGUCAUAGGCCAUGGAAACUAGGAGCACCAUUUCGCUGCCAGCGAAGAAAUGAACAAAGAAAAUCUGGGCCAGGCAGGCAUCAAAAGAAAUAGUCUUGCGCCCAACCAGAAAGUCUGUAGUCAUUUUAAGGGUA [U49C U108C A126G]	0
GUUAACGGUCAUAGGCCAUGGAAACUAGGAGCACCAUUUCGCUGCCAGUAAAGAAAUGAACAAAGAAAAUCUGGGCCAGGCAGGCAUCAAAAGAAAUAGUCUAGCGCCCAACCAGAAAGUCUGUAAUCAUUAUAAGGGUA [G50A U103A U108C U132A]	0
GUUAACGGUCAUAGGCCAUGGAAACUAGGAGCACCAUUUCGCUGCCAGCGAAGAAAUGAACAAAGAAAAUCUGGGCCAGGCAGGCAUCAAAAGAAGUAGUCUUGCGCUCAACCAGAAAGUCGGUAAUCAUUUUAAGGGUA [U49C A96G U122G]	2.58
GUUAACGGUCAUAGGCCAUGGAAACUAGGAGCACCAUUUCGCUGCCAGCGAAGAAAUGAACAAAGAAAAUCAGGGCCAGGCAGGCAUCAAAAGAAAUAGUCUUGCGCUCAACCAGAAAGUCUGUAACCGUUUUAAGGGUA [U49C U72A U127C A129G]	0.02
GUUAACGGUCAUAGGCCAUGGAAACUAGGAGCACCAUUUCGCUGCCAGGGAAGGAAUGAACAAAGAAGAUCUGGGCCAGGCAGGCAUUAAAAGAGAUAGUCUUGCGCUCAACCAGAAAGUCUGUAUUCAUUUUAAGGGUA [U49G A54G A68G C88U A95G A126U]	1.2
GUUAACGGUCAUAGGCCAUGGAAACUAGGAGCACCAUUUCGCUGCCAGCGAAGAAAUAAACAAAGACAAUCUGGGCCAGGCAGGCAUCAAAAGAAAUAGCCUUGCGCUCAACCAGAAAGUCUGCAAUCAUUUUAAGGGUA [U49C G58A A67C U100C U124C]	2.2
GUUAACGGUCAUAGGCCAUGGAAACUAGGAGCACCAUUUCGCUGCCAGUAAAGAAAUGAACAAAGGAAAUCUGGGCCAGGCAGGCAUCAAAAGAAAUAGUCUUGCGCUCAACCAGAAAGUCUGUAAUCAUCUUAAGGGUA [G50A A66G U131C]	0.5
GUUAACGGUCAUAGGCCAUGGAAACUAGGAGCACCAUUUCGCUGCCAGGGAAGAAAUGAACAAAGAAGAUCUGGGCCAGGCAGGCAUUAAAAGAAAUAGUCUUGCGCUCAACCAGGAAGUCUGUAAUCAUUUUAAGGGUA [U49G A68G C88U A116G]	1.39
GUUAACGGUCAUAGGCCAUGGAAACUAGGAGCACCAUUUCGCUGCCAGCGAAGAAACGAACAGAGAAAAUCUGGGCCAGGCAGGCAUCAAAAGGAAUAGUCUUGCGCUCAACCAGAAAGUCUGUAAUCAUUUUAAGGGUA [U49C U57C A63G A94G]	0.99
GUUAACGGUCAUAGGCCAUGGAAACUAGGAGCACCAUUUCGCUGCCAGCGAAGAAAUGAACAAAGAAAAUCUAGGCCAGGCAGGCAUCAAAAGAAAUAGUCUCGCGCUCAACCGGAAAGUCUGUAAUCAUUUUAAGGGUA [U49C G73A U103C A114G]	0.01
GUUAACGGUCAUAGGCCAUGGAAACUAGGAGCACCAUUUCGCUGCCAGCGAAGAAAUGAACAAAGAAAAUCUGGGCCAGGCAGGCAUCAAAAGAAAUAGUCUUGCGCUCAACCAGAAAGUCUGUAAUCCUUUUUAGGGUA [U49C A129C A134U]	0.33
GUUAACGGUCAUAGGCCAUGGAAACUAGGAGCACCAUUUCGCUGCCAGCGAAGAAAUGAACAAAGAAAAUCUGGGCCAGGCAGGCAUCAAAAGAAAUGGUCUUGCGCUCAGCCAGAAAGUCUGUAAUCAUUUUAAGGGUA [U49C A98G A111G]	0
GUUAACGGUCAUAGGCCAUGGAAACUAGGAGCACCAUUUCGCUGCCAGCGAAGAAAUGAACAAAGAAAAUCUGGGCCAGGCAGGCAUCAAAAGAAAUAGUCUUGCGCCCAACCAGAAAGUCUGUGAUCAUUCUAAGGGUA [U49C U108C A125G U132C]	0
GUUAACGGUCAUAGGCCAUGGAAACUAGGAGCACCAUUUCGCUGCCAGUAAGGAAAUGAACAAAGAAAAUCUGGGCCAGGCAGGCAUCAGAAGAAAUAGUCUUGCGCUCAACCAGAAAGUCUGUAAUCAUUUUAAGGGUA [G50A A52G A90G]	1.21
GUUAACGGUCAUAGGCCAUGGAAACUAGGAGCACCAUUUCGCUGCCAGCGAAGAAAUGAACAAAGAAAAUCUGGGCCAGGCAGGCACCAAAAGAAAUAGUCUUGCGCUCAACCCGAAAGUCUGUAAUCAUUUUAAGGGUA [U49C U87C A114C]	0.02
GUUAACGGUCAUAGGCCAUGGAAACUAGGAGCACCAUUUCGCUGCCAGGGAAGAAAUGAACAAAGAAAAUCUGGGCCAGGCAGGCAUCAAAAGAAAUAGCCUAGCGCUCAACCAGAAAGUCUGUAAUCAUUUUAAGGGUA [U49G U100C U103A]	1.63
GUUAACGGUCAUAGGCCAUGGAAACUAGGAGCACCAUUUCGCUGCCAGUAAAGAAACGAACAAAGAAAAUCUGGGCCAGGCUGGCAUCAAAAGAAAUAGUCUUGCGCUCAACCAGAAAGUCUGUAAUCAUUUUAAGGGUA [G50A U57C A82U]	0.11
GUUAACGGUCAUAGGCCAUGGAAACUAGGAGCACCAUUUCGCUGCCAGCGAAGAAAUGAACAAAGAAAAUCUGGGCCAGGCAGGCAUCAAAAGAAAUAGUCUUGCGCCCAACCAGAAAGUCUGUAAUCAUUCUAAGGGUA [U49C U108C U132C]	0.01
GUUAACGGUCAUAGGCCAUGGAAACUAGGAGCACCAUUUCGCUGCCAGGGAAGAGAUGAACAAAGAAAAUCUGGGCCAGGCAGGCAUCAAAAGAGAUAGUCUUGCGCUCAACCAGAAAGUCUGUAAUCAUUUUAAGGGUA [U49G A55G A95G]	1.01

Variant	self-cleavage
GUUAACGGUCAUAGGCCAUGGAAACUAGGAGCACCAUUUCGCUGCCAGCGAAGAAAUGAACAAAGAAAAUCUGGGCCAGGCAGGCAUCAAAAGAAAUUGUCUUGCGCUCAACCAGAAAGUCUGUGAUCAUUUAAAGGGUA [U49C A98U A125G U133A]	0.88
GUUAACGGUCAUAGGCCAUGGAAACUAGGAGCACCAUUUCGCUGCCAGGGAAGAAAUGAACGAAGAAAAUCUGGGCCAGGCAGGCAUCAAUAGAAAUAGUCUUGCGCUCAACCAGAAAGUCUGUAAUCAUUUUAAGGGUA [U49G A62G A91U]	0.82
GUUAACGGUCAUAGGCCAUGGAAACUAGGAGCACCAUUUCGCUGCCAGCGAAGAAAUGAACAAAGAAAACCUGGGCCAGGCAGGCAUCAAAAGAAAUAGUCUUGCGCUCAACCAGGAAGUCUGUAAUCAUUUUAAGGGUA [U49C U70C A116G]	1.36
GUUAACGGUCAUAGGCCAUGGAAACUAGGAGCACCAUUUCGCUGCCAGCGAAGAAAUGAACAAAAAAAAUCUGGGCCAGGCAGGCAUCAAAAGAAAUAGUCUUGCACUCAACCAGAAAGUCUGUAAUCAUCCUAAGGGUA [U49C G65A G106A U131C U132C]	0.02
GUUAACGGUCAUAGGCCAUGGAAACUAGGAGCACCAUUUCGCUGCCAGCGAAGAAAUGAACAAAGAAAAUCUGGGCCAGGCAGGCAUCAAAAGAAAUAGUCUUGCGCUCAACCAGAAAGGCUGUAUUCAUUUUAAGGGUA [U49C U120G A126U]	0.9
GUUAACGGUCAUAGGCCAUGGAAACUAGGAGCACCAUUUCGCUGCCAGCGAAGAAAUGAACAAAGAAAAUUUGGGCCAGGCAGGCAACAAAAGAAAUAGUCUUGCGCUCAACCAGAAAGUCUGUAAUCAUUUUAAGGGUA [U49C C71U U87A]	0.22
GUUAACGGUCAUAGGCCAUGGAAACUAGGAGCACCAUUUCGCUGCCAGCGAAGAAAUGAACAAAGAAAAUCUGGGCCAGGCAGGCAUCAAAAGAAAUAGUCCUGCGCUCAACCAGAAAGUCCGUAAUCAUUUUAAGGGUA [U49C U102C U122C]	0.53
GUUAACGGUCAUAGGCCAUGGAAACUAGGAGCACCAUUUCGCUGCCAGCGAAGAAACGAACAAAGAAAAUCUGGGCCAGGCAGGCAUCAAAAGAAAUAGUCUUGCGCUCAACCAGAAAGUCUGUAAUCAUUUUAGGGGUA [U49C U57C A135G]	0.94
GUUAACGGUCAUAGGCCAUGGAAACUAGGAGCACCAUUUCGCUGCCAGGGAGGAAAUGAACAAAGAAAAUCUGGGCCAGGCAGGCAUCAAAAGGAAUAGUCUUGCGCUCAACCAGAAAGUCUGUAAUCAUUUUAAGGGUA [U49G A52G A94G]	1.16
GUUAACGGUCAUAGGCCAUGGAAACUAGGAGCACCAUUUCGCUGCCAGCGAAGAAACGAACGAAGAAGAUCUGGGCCAGGCAGGCAUCAAAAGAAAUAGUCUUGCGCUCAACCAGAAAGUCUGUAAUCAUUUUAAGGGUA [U49C U57C A62G A68G]	1.11
GUUAACGGUCAUAGGCCAUGGAAACUAGGAGCACCAUUUCGCUGCCAGCGAAGAAAUGAACAAAGAAAAUCUGGGCCAGGCAGGCAUCAAAAGAAAUAGUCUCGCGCUCAACCAGAAAGUCUGUAAUCAUUUCAAGGGUA [U49C U103C U133C]	0.79
GUUAACGGUCAUAGGCCAUGGAAACUAGGAGCACCAUUUCGCUGCCAGGGAAGAAACGAACAGAGAAAAUCUGGGCCAGGCAGGCAUCAAAAGAAAUAGUCUUGCGCUCAACCAGAAAGUCUGUAAUCAUUUUAAGGGUA [U49G U57C A63G]	0.76
GUUAACGGUCAUAGGCCAUGGAAACUAGGAGCACCAUUUCGCUGCCAGUAAAGAAAUGGACGAAGAAAAUCUGGGCCAGGCAGGCAUCAAAAGAAAUAGUCUUGCGCUCAACCAGAAAGUCUGUAAUCAUUUUAAGGGUA [G50A A59G A62G]	0.96
GUUAACGGUCAUAGGCCAUGGAAACUAGGAGCACCAUUUCGCUGCCAGUAAAGAAAUGAACGAAGAAAAUCUGGGCCAGGCAGGCAUCAAAAGAAAUAGUCUUGCGCUCAACCAGAAAGUCUGUAAUUAUUUUAAGGGUA [G50A A62G C128U]	1.67
GUUAACGGUCAUAGGCCAUGGAAACUAGGAGCACCAUUUCGCUGCCAGUAAAGAAAUGGACAACGAAAAUCUGGGCCAGGCAGGCAUCAAAAGAAAUAGUCUUGCGCUCAACCAGAAAGUCUGUAAUCAUUUUAAGGGUA [G50A A59G A64C]	1.48
GUUAACGGUCAUAGGCCAUGGAAACUAGGAGCACCAUUUCGCUGCCAGUAAAGAAAUGAACAAAGAAAAUCUGGGCCAGGCAGGCAUCAAAAGAAAUAGUCUUGCGCUCAACCGGAAAGUCAGUAAUCAUUUUAAGGGUA [G50A A114G U122A]	0.32
GUUAACGGUCAUAGGCCAUGGAAACUAGGAGCACCAUUUCGCUGCCAGGGAAGAAAUGAACAAAGAAGGUCUGGGCCAGGCAGGCAUCAAAAGAAAUAGUCUUGCGCUCAACCAGAGAGUCUGUAAUCAUUUUAAGGGUA [U49G A68G A69G A117G]	1.23
GUUAACGGUCAUAGGCCAUGGAAACUAGGAGCACCAUUUCGCUGCCAGCGAAGAAAAGAACAAAGAAAAUCUGGGCCAGGCAGGCACCAAAAGAAAUAGUCUUGCGCUCAACCGGAAAGUCUGUAAUCAUUUUAAGGGUA [U49C U57A U87C A114G]	0.03
GUUAACGGUCAUAGGCCAUGGAAACUAGGAGCACCAUUUCGCUGCCAGCGAAGAAAUGAACAAAGAAAAUCUGGGCCAGGCAGGCAUCAAAAGAAAUAGUCUUGCGCUCAACCAGAAAUUCUGUAAUCAUUUUAAGGGUG [U49C G119U A140G]	1.54
GUUAACGGUCAUAGGCCAUGGAAACUAGGAGCACCAUUUCGCUGCCAGCGAAGAAAUGAACAAAGAAAAUCUGGGCCAGGCAGGCAUCAAAAGAAAUAGUCUUGCGCCCAUCCAGAAAGUCUGUAAUCAUUUUAAGGGUA [U49C U108C A111U]	0
